In paper PMC9911399, “Two distinct binding modes provide the RNA-binding protein RbFox with extraordinary sequence specificity”:
Substitutions are numbered along the chain they refer to; changes in the protein carry UniProt numbers. The list shows a part of the results.

T1: RBFOX1 RRM RbFoxmut (Fox-RRM*) (Homo sapiens, UniProt Q9NWB1 109-208, R118D;E147R;N151S;E152T)
T1 sequence: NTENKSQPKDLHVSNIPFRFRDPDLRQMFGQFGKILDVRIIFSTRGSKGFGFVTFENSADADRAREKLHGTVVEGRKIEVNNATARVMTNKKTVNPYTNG

B1: AGUCAAU (DNA:RNA)
RNA: GGGAGACCGGAAUUCAGAUUGUCCAGUCAAUUUAAAUCCCGUCGUAGCCACCA
DNA 1: CAATCTGAATTCCGGTCTCCC
DNA 2: TGGTGGCTACGACGGGATT
B2: CUGUUAA (DNA:RNA)
RNA: B1 RNA with A25C, G26U, U27G, C28U, A29U, U31A
DNA 1: CAATCTGAATTCCGGTCTCCC
DNA 2: TGGTGGCTACGACGGGATT
B3: CCAUCUC (DNA:RNA)
RNA: GGGAGACCGGAAUUCAGAUUGUCCCCAUCUCUUAAAUCCCGUCGUAGCCACCA
DNA 1: CAATCTGAATTCCGGTCTCCC
DNA 2: TGGTGGCTACGACGGGATT
B4: CAAGAAC (DNA:RNA)
RNA: B3 RNA with C26A, U28G, C29A, U30A
DNA 1: CAATCTGAATTCCGGTCTCCC
DNA 2: TGGTGGCTACGACGGGATT
B5: CGGGGCC (DNA:RNA)
RNA: B3 RNA with C26G, A27G, U28G, C29G, U30C
DNA 1: CAATCTGAATTCCGGTCTCCC
DNA 2: TGGTGGCTACGACGGGATT
B6: GUAAGUU (DNA:RNA)
RNA: B3 RNA with C25G, C26U, U28A, C29G, C31U
DNA 1: CAATCTGAATTCCGGTCTCCC
DNA 2: TGGTGGCTACGACGGGATT
B7: UUCUCGG (DNA:RNA)
RNA: B3 RNA with C25U, C26U, A27C, U30G, C31G
DNA 1: CAATCTGAATTCCGGTCTCCC
DNA 2: TGGTGGCTACGACGGGATT
B8: AACAGAU (DNA:RNA)
RNA: B1 RNA with G26A, U27C, C28A, A29G
DNA 1: CAATCTGAATTCCGGTCTCCC
DNA 2: TGGTGGCTACGACGGGATT
B9: ACAUCCU (DNA:RNA)
RNA: B3 RNA with C25A, U30C, C31U
DNA 1: CAATCTGAATTCCGGTCTCCC
DNA 2: TGGTGGCTACGACGGGATT
B10: CGUUUUC (DNA:RNA)
RNA: B3 RNA with C26G, A27U, C29U
DNA 1: CAATCTGAATTCCGGTCTCCC
DNA 2: TGGTGGCTACGACGGGATT
B11: AUUUAGA (DNA:RNA)
RNA: B1 RNA with G26U, C28U, A30G, U31A
DNA 1: CAATCTGAATTCCGGTCTCCC
DNA 2: TGGTGGCTACGACGGGATT
B12: AACGGUC (DNA:RNA)
RNA: B3 RNA with C25A, C26A, A27C, U28G, C29G
DNA 1: CAATCTGAATTCCGGTCTCCC
DNA 2: TGGTGGCTACGACGGGATT
B13: ACCCUAU (DNA:RNA)
RNA: B1 RNA with G26C, U27C, A29U
DNA 1: CAATCTGAATTCCGGTCTCCC
DNA 2: TGGTGGCTACGACGGGATT
B14: CACAGAC (DNA:RNA)
RNA: B3 RNA with C26A, A27C, U28A, C29G, U30A
DNA 1: CAATCTGAATTCCGGTCTCCC
DNA 2: TGGTGGCTACGACGGGATT
B15: UAGUAUG (DNA:RNA)
RNA: B3 RNA with C25U, C26A, A27G, C29A, C31G
DNA 1: CAATCTGAATTCCGGTCTCCC
DNA 2: TGGTGGCTACGACGGGATT
B16: AAUGGAU (DNA:RNA)
RNA: B1 RNA with G26A, C28G, A29G
DNA 1: CAATCTGAATTCCGGTCTCCC
DNA 2: TGGTGGCTACGACGGGATT
B17: UUGUCUG (DNA:RNA)
RNA: B3 RNA with C25U, C26U, A27G, C31G
DNA 1: CAATCTGAATTCCGGTCTCCC
DNA 2: TGGTGGCTACGACGGGATT
B18: UUAUAUA (DNA:RNA)
RNA: B3 RNA with C25U, C26U, C29A, C31A
DNA 1: CAATCTGAATTCCGGTCTCCC
DNA 2: TGGTGGCTACGACGGGATT
B19: GCUAUGA (DNA:RNA)
RNA: B1 RNA with A25G, G26C, C28A, A29U, A30G, U31A
DNA 1: CAATCTGAATTCCGGTCTCCC
DNA 2: TGGTGGCTACGACGGGATT
B20: GAUCCUA (DNA:RNA)
RNA: B1 RNA with A25G, G26A, A29C, A30U, U31A
DNA 1: CAATCTGAATTCCGGTCTCCC
DNA 2: TGGTGGCTACGACGGGATT
B21: GAUCCUU (DNA:RNA)
RNA: B1 RNA with A25G, G26A, A29C, A30U
DNA 1: CAATCTGAATTCCGGTCTCCC
DNA 2: TGGTGGCTACGACGGGATT
B22: CCCGAAG (DNA:RNA)
RNA: B1 RNA with A25C, G26C, U27C, C28G, U31G
DNA 1: CAATCTGAATTCCGGTCTCCC
DNA 2: TGGTGGCTACGACGGGATT
B23: UGUUUCC (DNA:RNA)
RNA: B1 RNA with A25U, C28U, A29U, A30C, U31C
DNA 1: CAATCTGAATTCCGGTCTCCC
DNA 2: TGGTGGCTACGACGGGATT
B24: CUGGGGC (DNA:RNA)
RNA: B3 RNA with C26U, A27G, U28G, C29G, U30G
DNA 1: CAATCTGAATTCCGGTCTCCC
DNA 2: TGGTGGCTACGACGGGATT
B25: UCUUACU (DNA:RNA)
RNA: B1 RNA with A25U, G26C, C28U, A30C
DNA 1: CAATCTGAATTCCGGTCTCCC
DNA 2: TGGTGGCTACGACGGGATT
B26: ACGGUCU (DNA:RNA)
RNA: B1 RNA with G26C, U27G, C28G, A29U, A30C
DNA 1: CAATCTGAATTCCGGTCTCCC
DNA 2: TGGTGGCTACGACGGGATT
B27: AUCGAUG (DNA:RNA)
RNA: B1 RNA with G26U, U27C, C28G, A30U, U31G
DNA 1: CAATCTGAATTCCGGTCTCCC
DNA 2: TGGTGGCTACGACGGGATT
B28: UAUUGAC (DNA:RNA)
RNA: B1 RNA with A25U, G26A, C28U, A29G, U31C
DNA 1: CAATCTGAATTCCGGTCTCCC
DNA 2: TGGTGGCTACGACGGGATT
B29: UCGUUCC (DNA:RNA)
RNA: B3 RNA with C25U, A27G, C29U, U30C
DNA 1: CAATCTGAATTCCGGTCTCCC
DNA 2: TGGTGGCTACGACGGGATT
B30: CGGCAUC (DNA:RNA)
RNA: B1 RNA with A25C, U27G, A30U, U31C
DNA 1: CAATCTGAATTCCGGTCTCCC
DNA 2: TGGTGGCTACGACGGGATT
B31: UAACCAU (DNA:RNA)
RNA: B1 RNA with A25U, G26A, U27A, A29C
DNA 1: CAATCTGAATTCCGGTCTCCC
DNA 2: TGGTGGCTACGACGGGATT

target: T1, RBFOX1 RRM RbFoxmut (Fox-RRM*); test: EMSA; HiTS-Eq, 1 nM pool, 10 min; buffer printed only for the single-RNA assays: 10 mM Tris pH 7.5, 150 mM NaCl, 3.4 mM EDTA, 0.001% NP-40, 30 C; details: tags: His6 N-terminal (pET28a); label: 5' 32P
Outline: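 Relative association constants, normalised to the cognate motif, were derived by comparing read counts of each RNA species with those of the control reaction. The RNA sequenced was the free fraction, separated by 8% native PAGE after a 10 min equilibration in 50 µL of 1 nM 5′-radiolabelled RNA (7 randomized nucleotides) with increasing concentrations of purified wild-type or mutant RbFox RRM.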

| Binder | binding signal |
| --- | --- |
| B1 | 0.0609 KA relative to UGCAUGU |
| B2 | 0.105 KA relative to UGCAUGU |
| B3 | 0.0807 KA relative to UGCAUGU |
| B4 | 0.106 KA relative to UGCAUGU |
| B5 | 0.231 KA relative to UGCAUGU |
| B6 | 0.11 KA relative to UGCAUGU |
| B7 | 0.0748 KA relative to UGCAUGU |
| B8 | 0.0694 KA relative to UGCAUGU |
| B9 | 0.0761 KA relative to UGCAUGU |
| B10 | 0.0458 KA relative to UGCAUGU |
| B11 | 0.12 KA relative to UGCAUGU |
| B12 | 0.107 KA relative to UGCAUGU |
| B13 | 0.0943 KA relative to UGCAUGU |
| B14 | 0.0649 KA relative to UGCAUGU |
| B15 | 0.674 KA relative to UGCAUGU |
| B16 | 0.0811 KA relative to UGCAUGU |

| Binder | binding signal |
| --- | --- |
| B17 | 0.218 KA relative to UGCAUGU |
| B18 | 0.145 KA relative to UGCAUGU |
| B19 | 0.186 KA relative to UGCAUGU |
| B20 | 0.0785 KA relative to UGCAUGU |
| B21 | 0.0685 KA relative to UGCAUGU |
| B22 | 0.0953 KA relative to UGCAUGU |
| B23 | 0.118 KA relative to UGCAUGU |
| B24 | 0.0886 KA relative to UGCAUGU |
| B25 | 0.0989 KA relative to UGCAUGU |
| B26 | 0.0673 KA relative to UGCAUGU |
| B27 | 0.112 KA relative to UGCAUGU |
| B28 | 0.0844 KA relative to UGCAUGU |
| B29 | 0.0738 KA relative to UGCAUGU |
| B30 | 0.261 KA relative to UGCAUGU |
| B31 | 0.0684 KA relative to UGCAUGU |
